Source: article PMC1950564, “CD100 on NK Cells Enhance IFNγ Secretion and Killing of Target Cells Expressing CD72” (PLoS ONE, 2007)

Molecular target: T1, human CD72 (human, UniProt P21854 1-359)
T1 sequence (looked up): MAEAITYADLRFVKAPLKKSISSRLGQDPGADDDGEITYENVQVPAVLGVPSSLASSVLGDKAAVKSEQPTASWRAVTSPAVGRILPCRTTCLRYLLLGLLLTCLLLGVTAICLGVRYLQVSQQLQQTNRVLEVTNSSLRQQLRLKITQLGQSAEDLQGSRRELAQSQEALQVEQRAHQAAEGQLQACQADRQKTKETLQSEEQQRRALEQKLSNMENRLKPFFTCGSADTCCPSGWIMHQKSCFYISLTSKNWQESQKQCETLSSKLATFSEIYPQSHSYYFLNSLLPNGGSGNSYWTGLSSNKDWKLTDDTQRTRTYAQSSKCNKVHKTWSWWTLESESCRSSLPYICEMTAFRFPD
Test: cell-based or functional assay

lysis of BW/CD72 versus parental BW cells by IL-2 activated NK cells (35S release, several E:T ratios): 64 % more
B1: CD100 (Semaphorin 4D) (natural protein)
chain: not shown
modifications: surface radioiodinated (125I) in the YTS immunoprecipitation
